Measured values taken from PMC7645366 (EMBO Molecular Medicine, 2020).
Where “and” joins values, the source holds several entries; their conditions need not be identical. Equal values may be shown once. Read-outs that look alike come from different tables or passages of the source. No end group written: not given here.

Assays:
[1] = test system: S. pneumoniae D39 (type 2)
[2] = test system: S. pneumoniae T4 (type 4)
[3] = 100 μM peptide, 3 h post‐infection

| Compound | Colonies at 100X dil, viable intracellular bacteria in DCs [1] | Colonies at 100X dil, viable intracellular bacteria in DCs [2] | number of intracellular bacteria in DCs, D39 [1, 3] | Colonies at 100X dil, viable intracellular bacteria in DCs ([1]; DCs+D39, MOI 10, 3 h post‐infection, 100 μM peptide, Exp1) | Viable intracellular bacteria in DCs ([1]; DCs+D39, Exp1) | Colonies at 100X dil, viable intracellular bacteria in DCs ([1]; DCs+D39, Exp 2) | Viable intracellular bacteria in DCs ([1]; DCs+D39, Exp 2) | Colonies at 100X dil, viable intracellular bacteria in DCs ([1]; DCs+D39, Exp 3) | Viable intracellular bacteria in DCs ([1]; DCs+D39, Exp 3) | Mean colonies, viable intracellular bacteria in DCs ([1]; DCs+D39, mean) | number of intracellular bacteria in DCs, T4 [2, 3] | Colonies at 100X dil, viable intracellular bacteria in DCs ([2]; DCs+T4, MOI 10, 3 h post‐infection, 100 μM peptide, Exp1) | Viable intracellular bacteria in DCs ([2]; DCs+T4, Exp1) | Colonies at 100X dil, viable intracellular bacteria in DCs ([2]; DCs+T4, Exp 2) | Viable intracellular bacteria in DCs ([2]; DCs+T4, Exp 2) | Colonies at 100X dil, viable intracellular bacteria in DCs ([2]; DCs+T4, Exp 3) | Viable intracellular bacteria in DCs ([2]; DCs+T4, Exp 3) | Mean colonies, viable intracellular bacteria in DCs ([2]; DCs+T4, mean) |
| --- | --- | --- | --- | --- | --- | --- | --- | --- | --- | --- | --- | --- | --- | --- | --- | --- | --- | --- |
| C=C1[C@@H](C)[C@H]2[C@H](Cc3ccccc3)NC(=O)[C@]23[C@H](OC(C)=O)/C=C/[C@@](C)(O)C(=O)[C@@H](C)C/C=C/[C@H]3[C@@H]1O [CytD, cytochalasin D, reference compound] | 6 and 5 and 4 | 4 and 5 | – | – | – | – | – | – | – | – | – | – | – | – | – | – | – | – |
| FTWSDGSPVSYEN [P2] | – | – | significantly reduced | 13 | 2.6 CFU/ml*10^5 | 15 | 3 CFU/ml*10^5 | 14 | 2.8 CFU/ml*10^5 | 14 | significantly reduced | 17 | 1.7 CFU/ml*10^5 | 21 | 2.1 CFU/ml*10^5 | 19 | 1.9 CFU/ml*10^5 | 19 |
